Experimental data from paper PMC4336329 (PLoS ONE, 2015).
Out of some 310,000 compounds screened, about 14,000 (4.5%) showed an effect of 50% or more. Effects have a minus sign here. Some of the results follow.

Target: human ether-à-go-go-related gene (hERG) potassium channel (human, UniProt Q12809)
Test: primary screen, population patch clamp on CHO cells stably expressing hERG
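Also: peak tail current of the secondary pulse compared with the same well before compound.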

Sequence of human ether-à-go-go-related gene (hERG) potassium channel (Q12809 whole entry, looked up): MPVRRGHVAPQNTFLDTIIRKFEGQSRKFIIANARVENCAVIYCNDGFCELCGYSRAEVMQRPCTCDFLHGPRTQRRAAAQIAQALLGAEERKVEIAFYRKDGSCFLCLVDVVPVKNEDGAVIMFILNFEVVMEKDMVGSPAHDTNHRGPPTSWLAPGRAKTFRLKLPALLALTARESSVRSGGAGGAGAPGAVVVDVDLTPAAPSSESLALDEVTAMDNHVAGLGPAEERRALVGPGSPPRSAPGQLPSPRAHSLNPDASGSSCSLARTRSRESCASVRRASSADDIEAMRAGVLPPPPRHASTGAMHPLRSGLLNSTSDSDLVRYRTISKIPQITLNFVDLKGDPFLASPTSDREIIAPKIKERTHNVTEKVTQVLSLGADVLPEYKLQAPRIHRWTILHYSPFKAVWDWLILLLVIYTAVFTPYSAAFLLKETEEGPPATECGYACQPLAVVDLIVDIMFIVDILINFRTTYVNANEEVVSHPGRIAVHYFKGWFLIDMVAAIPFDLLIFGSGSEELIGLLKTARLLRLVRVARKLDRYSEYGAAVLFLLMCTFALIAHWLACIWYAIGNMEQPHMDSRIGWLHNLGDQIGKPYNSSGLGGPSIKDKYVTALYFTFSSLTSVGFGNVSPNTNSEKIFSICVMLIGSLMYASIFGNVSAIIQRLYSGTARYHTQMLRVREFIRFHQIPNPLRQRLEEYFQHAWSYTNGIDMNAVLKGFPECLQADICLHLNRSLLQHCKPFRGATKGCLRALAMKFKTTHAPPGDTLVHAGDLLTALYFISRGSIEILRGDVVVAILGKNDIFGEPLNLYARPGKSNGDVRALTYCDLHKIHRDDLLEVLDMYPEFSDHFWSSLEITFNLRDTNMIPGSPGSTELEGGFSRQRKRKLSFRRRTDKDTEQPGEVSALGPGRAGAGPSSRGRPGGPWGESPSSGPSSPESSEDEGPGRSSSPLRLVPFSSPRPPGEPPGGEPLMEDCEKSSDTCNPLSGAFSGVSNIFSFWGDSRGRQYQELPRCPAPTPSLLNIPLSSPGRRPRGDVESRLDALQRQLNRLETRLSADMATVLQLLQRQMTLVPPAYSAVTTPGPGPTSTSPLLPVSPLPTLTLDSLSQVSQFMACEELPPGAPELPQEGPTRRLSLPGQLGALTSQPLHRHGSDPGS

SMILES	hERG current change (%, negative = inhibition) at 10uM
Nc1nonc1-n1nnc(C(=O)N/N=C/c2cccc(Cl)c2)c1-c1cccs1	3.81%
O=C(NCc1ccccc1)c1ccc(S(=O)(=O)Nc2cccc(C(F)(F)F)c2)cc1	-3.04%
COc1ccc(C2OC(=O)CC2C(=O)NC(C)C)cc1 (centres unmarked)	5.9%
COC(=O)CSc1cc(C(=O)c2nccn2C)c2ccccc2n1	0.879%
O=C(COc1ccc(Br)cc1)NCCO	14.7%
CCOC(=O)N1CCN(C(=O)CSC2=NS(=O)(=O)c3cc(F)ccc3N2)CC1	11.6%
Cc1ccc(NS(=O)(=O)c2cccc(C(=O)NCCCN3CCCC3=O)c2)cc1	-17.1%
O=c1c2c(nc3n1CCCCC3)sc1c(O)cccc12	-19.5%
CCOCCCn1c(SCC(=O)N2CCOCC2)nc2ccccc2c1=O	-36%
C/C(=N/Nc1ccc(C)cc1)C1(C)N(O)C(C)(C)C(c2ccco2)=[N+]1[O-] (centres unmarked)	-4.66%
N/C(=N\OC(=O)c1cc([N+](=O)[O-])ccc1Cl)c1ccccn1	3.99%
COC(=O)C(CC(=O)c1ccc(Cl)cc1)c1ccc(C)cc1 (centres unmarked)	1.42%
CN(C)CCN(Cc1ccco1)S(=O)(=O)c1csc(C(N)=O)c1	7.29%
COC(=O)c1ccccc1NC(=O)Cn1c(=O)n(CCC(=O)NC2CCN(Cc3ccccc3)CC2)c(=O)c2ccccc21	-34.8%
c1cncc(COC2CCCN(Cc3nc(-c4cccs4)no3)C2)c1 (centres unmarked)	-2.12%
CCCCn1c(N)c(N(CCC(C)C)C(=O)CSc2nncn2-c2ccccc2)c(=O)[nH]c1=O	15.6%
C/C=C1\COC(C(=O)NCc2ccncc2)(C(F)(F)F)C=C1C=C1CCCCC1 (centres unmarked)	-27.9%
CCn1c(=NC(=O)CS(=O)(=O)c2ccc(F)cc2)sc2cccc(OC)c21	-11%
CCOc1ccc(NC(C)C(=O)N/N=C/c2cccs2)cc1 (centres unmarked)	7.02%
CC(C)CCN(C(=O)Nc1ccc(Cl)cc1)C1CCN(C(C)C)CC1	-72.1%
O=C(c1ccccc1)c1cccc(C(=O)c2ccccc2)c1	-6.3%
Cc1ccccc1N1CC(C(=O)Nc2ccc3c(c2)OCO3)CC1=O (centres unmarked)	-13.2%

SMILES	hERG current change (%, negative = inhibition) at 10uM
COc1ccccc1NS(=O)(=O)c1cc(NC(=O)c2cccs2)ccc1N1CCOCC1	10.2%
Cc1ccc(C(=O)Nc2nccc(-c3cccs3)n2)cc1	-47.5%
COc1ccc(-c2ccnc(SCC(=O)Nc3ccccn3)n2)cc1	3.26%
COc1ccc(-c2nc(CS(=O)CC(=O)N3CCN(C)CC3)c(C)o2)cc1OC (centres unmarked)	-2.26%
COCc1nn2c(N)c(-c3ccccc3)cnc2c1-c1ccccc1	20.8%
CC(=O)Nc1ccc(S(=O)(=O)NCc2nc(-c3ccc(C)cc3)no2)cc1	14.8%
COCCCn1c(N)c(C(=O)OCCOC)c2nc3ccccc3nc21	-5.84%
Cc1cccc(-c2nnc(SCc3ccccc3)o2)c1	-4.45%
CSc1ccc(S(=O)(=O)N2CCC(C(=O)NCC3CCCO3)CC2)cc1 (centres unmarked)	-7.63%
Cc1cccc(C(=O)NNC(=O)c2c(O)c3ccccc3n(C)c2=O)c1	-0.855%
Cc1cc(OCC(=O)N2CCC(O)CC2)c2c(C)cc(=O)oc2c1	17.5%
O=C(NC1CCN(C(=S)Nc2ccc(F)cc2)CC1)c1ccco1	-39%
COc1cc2c(cc1OC)C(C)N(S(=O)(=O)c1cn(C)cn1)CC2 (centres unmarked)	7.14%
CN(Cc1ccccc1)C(=O)CN(c1ccccc1Cl)S(C)(=O)=O	18.6%
O=C(NCc1ccco1)c1sc2cccc(F)c2c1Cl	5.41%
O=c1[nH]n2c(=O)c3c([nH]c2c1N=Nc1ccccc1)CCC3	15.1%
O=C(Cn1ccc2ccccc2c1=O)NCC1COc2ccccc2O1 (centres unmarked)	-7.8%
Cc1ccc(Nc2ncnc3nc[nH]c23)cc1Cl	17.8%
O=S1(=O)CCN(C(CCO)c2cccc(C(F)(F)F)c2)CC1 (centres unmarked)	1.1%
CN(C)c1ccc(NC(=O)CN2C3CCCC2CC(NC(=O)c2ccccc2)C3)cc1 (centres unmarked)	-65.3%
COc1ccccc1CC(=O)N1CCCc2cc(C)ccc21	14.8%
O=C(/C=C/c1ccc2c(c1)OCO2)N1CCN(c2ccccc2F)CC1	-6.73%

SMILES	hERG current change (%, negative = inhibition) at 10uM
Br.O=C(CN1CCCCC1)c1ccc(OC(F)F)cc1	-69.6%
O=C(Cc1cccs1)Nc1ccc(-c2nnc(-c3ccco3)o2)cc1	-0.213%
COC(=O)C1=C(C)N(Cc2ccco2)C(=O)N[C@@H]1c1ccc(Br)cc1	3.65%
COc1ccccc1CC(=O)N1CCC(CCC(=O)NC2CC2)CC1	13.8%
O=C(CC1CCS(=O)(=O)C1)NC1CCCCC1 (centres unmarked)	-0.93%
COc1ccc(C(=O)C[n+]2ccc(-c3nnc4n3CCCCC4)cc2)cc1.[Br-]	13.2%
CC(C)Cn1c(C(C)NC(=O)Cc2ccccc2)nc2ccccc21 (centres unmarked)	-1.69%
COc1ccc(C(=O)CSc2nccn2C)c(OC)c1	1.09%
COc1ccc(-c2nnc(SCC(=O)N3CCC(Cc4ccccc4)CC3)o2)cc1OC	-18.3%
CC1=C(C(=O)OCc2ccccc2)C(c2ccc(Br)cc2)NC(=O)N1CCCCCC(=O)O (centres unmarked)	-11.6%
CCc1ccc2[nH]c(=O)c(CN(CCN(CC)CC)C(=O)Nc3ccccc3OC)cc2c1	-76.5%
COC(=O)c1cnc(Nc2cccc(C(F)(F)F)c2)c([N+](=O)[O-])c1	-12.3%
COC(=O)C1=C(C)N(c2ccc(F)c(Cl)c2)C(=O)C1	-4.92%
Cc1ccc(-c2n[nH]c(=O)c3ccccc23)cc1S(=O)(=O)NCCO	-12.1%
O=c1[nH]c2ccc(S(=O)(=O)NCc3ccccc3)cc2[nH]1	16.8%
COc1cccc(N(CC(=O)NCCSCc2ccc(C)cc2)S(C)(=O)=O)c1	3.33%
O=C(NCc1ccc(Cl)cc1)c1ncn[nH]1	6.7%
C=CCc1cccc2cc(C(=O)Nc3ccc(F)cc3)c(=O)oc12	5.83%
CN1CCN(CC(=O)Nc2cc(N(C)C)nc3ccccc23)CC1.Cl	8.25%
O=c1nc(/C=C/c2ccc(-c3ccc(F)cc3)o2)cc(C(F)(F)F)[nH]1	11.2%
O=C(C1=C[C@@H]2[C@H]3C(=O)N(c4ccc(Cl)cc4)C(=O)[C@H]3[C@@H](C(=O)c3ccc(Cl)cc3)N2C=C1)c1ccccc1	6.92%
C=CCOc1ccccc1NC(=O)CN1C(=O)CNC1=O	23.6%

SMILES	hERG current change (%, negative = inhibition) at 10uM
Cc1nnc(NC(=O)c2ccc(S(=O)(=O)N3CCOCC3)cc2)s1	2.93%
CCOC(=O)C1CCCN(Cc2nc(CC3CC3)no2)C1 (centres unmarked)	0.541%
COc1ccc(/C=C(/CC(=O)Nc2ccc(C)cc2)c2nc3ccccc3s2)cc1	3.77%
Oc1ccc(C(c2nnnn2CCc2ccccc2)N2CCN(c3nc4ccccc4s3)CC2)cc1 (centres unmarked)	9.25%
CCOC(=O)c1ccc(NC(=S)Nc2ccc(Cl)cn2)cc1	-2.85%
O=C(Nc1cccc(NC(=O)c2cccnc2)c1)c1ccccc1	2.4%
C=CCn1c(O)c(C(CC)=Nc2ccc(N(C)C)cc2)c(=O)[nH]c1=O	6.81%
CSc1nc(N2CCOCC2)c2c(c1C#N)CCCCC2	-12.6%
COc1cc(C(=O)Nc2nnc(Cc3ccccc3)s2)cc(OC)c1OC	-17.6%
Cc1cc2ncc(-c3ccccc3)nc2cc1C	14.2%
O=C(O)CC(NC(=O)Cc1ccc(Cl)cc1)c1ccco1 (centres unmarked)	8.55%
CCCn1c(=O)n(C)c(=O)c2c(SCC(=O)Nc3cc(C)on3)nc(C(C)(C)C)nc21	-28.3%
CCOC(=O)N1C(=O)[C@@](CC)(c2ccccc2)N1C(=O)OCC	10.5%
O=C(c1ccc(NC(=O)C(c2ccccc2)c2ccccc2)cc1)c1ccc(C(=O)O)c(C(=O)O)c1	15.1%
COC(=O)c1ccc(NC(=O)CSc2nnc(C3CC3)n2C)cc1	-4.59%
C#CCOCCOCCOCCNc1nc(N2CCN(C(=O)[C@H]([C@@H](C)CC)n3cc([C@@H](N)CO)nn3)CC2)nc(N2CCN(C(=O)[C@H](Cc3ccc(O)cc3)n3cc([C@@H](N)CC(C)C)nn3)CC2)n1.Cl	5.13%
CN(C)c1ccc(NC(=O)CN2C(=O)c3ccccc3C2=O)cc1	10.9%
Cc1[nH]c2ccccc2c1CN1CCC(Cc2ccccc2)CC1.O=C(O)C(=O)O	-67.4%
COc1cc2cnc(-c3ccccc3)c(-c3ccc(C(F)(F)F)cc3)c2cc1OC	8.52%
Cc1ccc(S(=O)(=O)N2CCC(C(=O)NCCC3=CCCCC3)CC2)c(C)c1	-23.6%
